Assay results taken from PubChem BioAssay (NCI).
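Test compounds were applied to cells in 96-well plates for 48 hours at 5 doses. Here, GI50 denotes the concentration required for 50% inhibition of growth. TGI is the concentration that stops growth completely.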

System: NCI-H322M lung
Experiment: inhibition of tumour cell growth, NCI panel, 48 h

SMILES | GI50 [µM] | TGI [µM]
O=C(NNc1nc2cc(F)cc(F)c2n2cccc12)c1ccncn1 | > 30 | > 30
Cc1cccc2c3c(sc12)C(c1ccc(F)cc1)C(C#N)=C(/N=C/c1ccc(Cl)cc1)O3 (centres undefined) | 0.782 | 35.6
